The molecules below were run on IL-8 secretion from cystic fibrosis lung epithelial IB3-1 cells. Conditions: suppression of IL-8 secretion from CF lung epithelial cells.
With `CC(=O)O[C@H]1CC[C@@]2(C)[C@H](CC[C@@H]3[C@@H]2C[C@@H](OC(C)=O)[C@]2(C)[C@@H](C4=CC(=O)OC4)CC[C@]32O)C1` (single isomer, unassigned; diac) [digoxigenin3,12 diAC, digoxigenin 3,12 diAC] the “Potency relative to digitoxin, %” value was <<0.1, %. In the case of `CC(=O)O[C@H]1CC[C@]2(C=O)[C@H]3CC[C@]4(C)[C@@H](C5=CC(=O)OC5)CC[C@]4(O)[C@@H]3CC[C@]2(O)C1` [acetylstrophanthdin, acetyl-strophanthidin], the “Potency relative to digitoxin, %” value is reported as 0.8%. `C[C@]12CC[C@H](O)C[C@H]1CC[C@@H]1[C@@H]2CC[C@]2(C)[C@@H](C3=CC(=O)OC3)CC[C@]12O` [digitoxigenin] was tested, and the “Potency relative to digitoxin, %” value was 1.2%. In the case of `C[C@]12CC[C@H](O)C[C@H]1CC[C@@H]1[C@@H]2C[C@@H](O)[C@]2(C)[C@@H](C3=CC(=O)OC3)CC[C@]12O` [digoxigenin], the “Potency relative to digitoxin, %” value is reported as 2.6%. `CO[C@H]1C[C@H](O[C@H]2CC[C@@]3(C)[C@H](CC[C@@H]4[C@@H]3CC[C@]3(C)[C@@H](C5=CC(=O)OC5)[C@@H](OC(C)=O)C[C@]43O)C2)O[C@@H](C)[C@@H]1O` [oleandrin] was tested, and the “Potency relative to digitoxin, %” value was 43%.
